# Laboratory results: the BET-seq Pho4 binding data (Le et al. 2018)
# This is one part of the list. The energies were worked out here from pooled read counts, against the library average; single values are noisy.
# Target: T1, Pho4 (S. cerevisiae) (UniProt P07270)
# T1 sequence: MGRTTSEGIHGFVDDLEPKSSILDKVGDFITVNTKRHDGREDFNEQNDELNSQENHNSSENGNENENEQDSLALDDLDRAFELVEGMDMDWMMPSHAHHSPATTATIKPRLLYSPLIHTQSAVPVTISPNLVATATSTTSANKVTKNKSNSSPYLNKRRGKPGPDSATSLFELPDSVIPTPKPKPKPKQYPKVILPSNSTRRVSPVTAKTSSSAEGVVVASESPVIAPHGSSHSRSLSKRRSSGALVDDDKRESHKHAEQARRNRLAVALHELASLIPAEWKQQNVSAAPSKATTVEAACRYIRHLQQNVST
# Assay: relative binding free energy (BET-seq); higher = weaker binding
# Settings: reference: library average
row,Sequence,relative binding free energy
1,TAGTACACGTGCGTAT,0.02 kcal/mol
2,AGAGGCACGTGTCTAG,-0.09 kcal/mol
3,TAGTACACGTGGGTGT,-0.22 kcal/mol
4,TTGTGCACGTGTTTCA,0.01 kcal/mol
5,CTTATCACGTGGGTAG,0.05 kcal/mol
6,TGGTGCACGTGATCAG,0 kcal/mol
7,ATGGACACGTGTCGGA,0.15 kcal/mol
8,CGGGTCACGTGAGAGG,0.38 kcal/mol
9,GTTAGCACGTGTTAAG,0.05 kcal/mol
10,GGTGGCACGTGTAAGT,0.07 kcal/mol
11,TAGTGCACGTGGGTTC,-0.08 kcal/mol
12,GGGTTCACGTGATGCT,0.43 kcal/mol
13,TAGAGCACGTGAGTAG,0.11 kcal/mol
14,GATGACACGTGGAGGT,0.17 kcal/mol
15,CTAAGCACGTGTGGGG,-0.05 kcal/mol
16,GTGAGCACGTGTACGT,0.09 kcal/mol
17,ATATACACGTGTTTCG,0.01 kcal/mol
18,TTGGGCACGTGACCGT,-0.13 kcal/mol
19,AAGTTCACGTGGTTGC,0.28 kcal/mol
20,CGGAACACGTGATTGT,0.13 kcal/mol
21,GTCGGCACGTGCGTTA,-0.01 kcal/mol
22,TACGTCACGTGGTCGG,-0.12 kcal/mol
23,GATAACACGTGCGTTG,0.09 kcal/mol

row,Sequence,relative binding free energy
1,TTTCTCACGTGTGCTT,0.25 kcal/mol
2,TGTAACACGTGCAAGG,0.08 kcal/mol
3,AGAAGCACGTGGTGCT,-0.11 kcal/mol
4,AGATGCACGTGTGTGC,-0.03 kcal/mol
5,GTTTTCACGTGATTCG,0.19 kcal/mol
6,GGTTCCACGTGTATGG,0.16 kcal/mol
7,GTAAACACGTGTTGAT,0.01 kcal/mol
8,TTAGACACGTGTATAA,0.1 kcal/mol
9,TGGTGCACGTGCGCGC,-0.11 kcal/mol
10,ATTTTCACGTGAGGGC,0.38 kcal/mol
11,TTCTGCACGTGGTGCT,-0.16 kcal/mol
12,AAAGGCACGTGTTGTA,-0.1 kcal/mol
13,TGTCGCACGTGGGTAG,-0.34 kcal/mol
14,TTTTGCACGTGCTGGA,0.04 kcal/mol
15,GCGGGCACGTGGTTGA,-0.18 kcal/mol
16,TTGATCACGTGTGTGA,0.18 kcal/mol
17,AGGTTCACGTGATCTG,0.15 kcal/mol
18,ACTGTCACGTGTGGGC,-0.01 kcal/mol
19,GTAGTCACGTGTATGA,0.03 kcal/mol
20,GGGAGCACGTGTAGGT,-0.05 kcal/mol
21,TTGGACACGTGTCAAG,0.26 kcal/mol
22,AGTGTCACGTGATTTG,0.23 kcal/mol
23,TCAGGCACGTGGATGA,-0.04 kcal/mol

row,Sequence,relative binding free energy
1,AGGTTCACGTGGCGTT,0.15 kcal/mol
2,TTGGGCACGTGGATCT,-0.14 kcal/mol
3,GGCGGCACGTGGTAAT,0 kcal/mol
4,GTTTACACGTGTTTAT,0.11 kcal/mol
5,AGAAGCACGTGGGGTG,-0.24 kcal/mol
6,TATAGCACGTGCTGGG,-0.19 kcal/mol
7,TACGACACGTGGGGGA,-0.14 kcal/mol
8,GAGTCCACGTGGTGGG,0.09 kcal/mol
9,TCATGCACGTGAGGTT,0.17 kcal/mol
10,AATTTCACGTGGTAGG,0.37 kcal/mol
11,CGGGGCACGTGCATGT,-0.19 kcal/mol
12,TGTGCCACGTGGTGAG,-0.21 kcal/mol
13,CATGGCACGTGATAGG,0.03 kcal/mol
14,GAGGGCACGTGTAGGA,-0.07 kcal/mol
15,AGCAGCACGTGTGTTT,-0.02 kcal/mol
16,GTTTACACGTGTGAAT,0.23 kcal/mol
17,GAAGGCACGTGGACGG,-0.06 kcal/mol
18,ATTATCACGTGGGTTT,0.01 kcal/mol
19,TTCAGCACGTGTGAAG,0.02 kcal/mol
20,TTTGACACGTGGTTCT,-0.13 kcal/mol
21,TTATTCACGTGGGAAG,0.13 kcal/mol
22,TTTTACACGTGATCTT,0.14 kcal/mol
23,TTCGACACGTGTAGTA,0.07 kcal/mol

row,Sequence,relative binding free energy
1,TTTAGCACGTGTAGGT,-0.14 kcal/mol
2,TGGGGCACGTGGGATT,-0.11 kcal/mol
3,GGTTACACGTGTATTA,0.08 kcal/mol
4,GTTTTCACGTGCGGGC,0.32 kcal/mol
5,GAAGTCACGTGGGCGT,0.11 kcal/mol
6,TTGTGCACGTGATGGT,0.14 kcal/mol
7,TTGTACACGTGCTGAA,0.1 kcal/mol
8,TGTAGCACGTGGATAA,-0.07 kcal/mol
9,CTGAGCACGTGGTGTT,-0.22 kcal/mol
10,TATATCACGTGCTGTA,0.14 kcal/mol
11,TGGTACACGTGTTTGC,0.08 kcal/mol
12,TTGGGCACGTGTAGGG,0.01 kcal/mol
13,TTGCGCACGTGCTTGT,-0.18 kcal/mol
14,GGGGCCACGTGAAGGT,0.26 kcal/mol
15,TGTGCCACGTGAGTGA,0.07 kcal/mol
16,TTGTGCACGTGGTTCC,0.02 kcal/mol
17,AGTGTCACGTGTCATT,0.08 kcal/mol
18,AGCTGCACGTGGGGAT,-0.06 kcal/mol
19,GTGGTCACGTGTAACA,0.31 kcal/mol
20,GTTATCACGTGTCTTT,0.14 kcal/mol
21,GCGTTCACGTGGTTGT,0.2 kcal/mol
22,TTGCACACGTGAGGAT,0.29 kcal/mol
23,GAATACACGTGGGAAG,0.11 kcal/mol

row,Sequence,relative binding free energy
1,AAATGCACGTGTGCGT,-0.05 kcal/mol
2,GTTTCCACGTGGTGTA,-0.08 kcal/mol
3,AACGACACGTGGTTGT,-0.05 kcal/mol
4,GTTTACACGTGGATGA,0.11 kcal/mol
5,GGATTCACGTGTTCGT,0.32 kcal/mol
6,TCATGCACGTGTGAGG,0.11 kcal/mol
7,GCGGTCACGTGGGGGT,0.04 kcal/mol
8,GTAGGCACGTGTGGGA,0.03 kcal/mol
9,GGGTCCACGTGATATT,0.26 kcal/mol
10,TTGAGCACGTGGGCTA,-0.2 kcal/mol
11,CTGGGCACGTGAGGCT,0 kcal/mol
12,GTCGTCACGTGTTTAT,0.11 kcal/mol
13,AGTATCACGTGTTCTT,0.02 kcal/mol
14,CCATGCACGTGTAGGG,-0.01 kcal/mol
15,TTGCTCACGTGAAAGT,0.35 kcal/mol
16,TTATTCACGTGGAAGC,0.49 kcal/mol
17,GAAATCACGTGTGTAT,0.14 kcal/mol
18,GTTGCCACGTGCGGGT,-0.1 kcal/mol
19,ATTAACACGTGGTGTG,-0.09 kcal/mol
20,TATGGCACGTGCATTG,-0.09 kcal/mol
21,TGCGGCACGTGTGCGT,-0.08 kcal/mol
22,GGTTTCACGTGGTGCA,0.2 kcal/mol
23,TGTGACACGTGAATTG,0.07 kcal/mol
